Reference: PMC6212790
The list shows a part of the results. At the low end of the ranking the order means little.

Target: T1, GST-Rok (full length) (UniProt O34857)
T1 sequence: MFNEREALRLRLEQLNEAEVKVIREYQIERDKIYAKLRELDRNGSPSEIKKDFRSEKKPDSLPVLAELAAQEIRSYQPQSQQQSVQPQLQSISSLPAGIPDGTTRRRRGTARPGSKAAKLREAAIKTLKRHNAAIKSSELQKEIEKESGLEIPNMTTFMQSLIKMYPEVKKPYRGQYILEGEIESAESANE
Test: protein binding microarray;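 note: rank score from −0.5 (least bound) to 0.5 (best bound)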
Conditions: Rok is a gene silencer of Bacillus subtilis; high values mean tight binding; most listed sequences are background and not binding sites; double strand, one strand shown

Sequence | binding signal [E-score]
CGGCTCAA | -0.239
AACAGGAA | -0.0538
ACATCCAG | 0.088
ACGCTTTG | -0.209
ATTGCTCC | 0.0337
CCAGTTCG | -0.204
ATGATATC | 0.173
AGCTAAGA | 0.0579
CAATACAA | 0.114
ATTCCTGC | 0.154
ACGAACGG | -0.178
CGGCACAG | -0.105
AATGAATT | 0.29
CTCTGAAA | 0.0893
GACGGCAC | -0.177
GGGGTCGA | -0.314
CATGGTAG | 0.168
GCTAAGGA | -0.181
GATCGCTA | 0.00886
AGTCAGCG | 0.00834
CCTATCAC | 0.0828
CTAAGAGA | -0.0737
AATCTGAC | -0.0954
CGAACCCG | -0.099
AACGTGGC | -0.156

Sequence | binding signal [E-score]
CATGTACC | 0.219
AAGCCCGA | -0.21
GCAGAAGC | -0.214
GCCTAGGA | -0.0449
GCCGAGCA | -0.318
AATGAGCT | -0.107
CCCATTCC | -0.204
CAGAGCAG | -0.273
AACAGAAG | 0.0183
CCCTGTTC | -0.371
CAACACCG | -0.0948
AGTCTGCC | -0.265
CGTAGACC | -0.2
TAAACGGA | 0.0186
AACACCAG | -0.0704
GCCGCACC | -0.268
TCTTGCAA | 0.108
GTAGCGAC | 0.183
AGGGCGCC | -0.186
AAACGAAT | 0.212
GCTCAAAA | -0.148
CAAGGACA | -0.196
CGAGCCGC | -0.156
AGACTGAT | -0.0117
AGGGCGAG | -0.187

Sequence | binding signal [E-score]
AACATAAA | 0.0213
GCGCGTTA | 0.0823
CTGCCCGC | -0.258
CTGGAGTA | 0.0135
CCATCTCG | -0.0837
ATATTCTG | 0.214
TCCGAGAA | -0.0164
AGACTTCG | -0.15
ACCTTCGA | 0.00802
AACATGAT | 0.181
GCCCCACC | -0.364
CAGGAGGA | -0.19
GGTAACAA | 0.126
ATCAGGGG | -0.142
AATGTTCC | -0.104
AGATATTA | 0.404
GTTGGACA | -0.242
GGCGTGCA | -0.208
CGTCCGAC | -0.166
AGGCCATG | -0.266
ATTTTCTG | -0.139
GTCATATA | 0.291
GACCCTAC | -0.165
ATGAGTCC | -0.167
CTACCAAG | -0.0129

Sequence | binding signal [E-score]
AGGAGGTC | -0.306
ACCTGTTA | 0.0535
AACCACGA | 0.0386
GATACTGC | 0.0147
AGCGCACA | -0.0985
CTTCGAGA | -0.0995
CATCGGAG | -0.27
GCACAGCC | -0.267
GGGGCTTA | -0.298
CTTCATAC | 0.0169
CTTTTCGA | 0.119
ATTCGGGC | -0.08
ATTCAGAC | -0.145
TCAATCCA | -0.0971
CTCAATTC | 0.0663
GACCCGAA | -0.305
CGGCTACG | -0.221
CGACAACC | -0.0599
ACTATTCT | 0.125
ATGAAACA | 0.15
ATCTTCAA | 0.086
CTTTGTGA | -0.139
ACGCTGTA | -0.022
AAGGCAGG | -0.327
ATTGTCCG | -0.0725

Sequence | binding signal [E-score]
AACCTATT | 0.19
AATCATTA | 0.158
AAGTTAAG | -0.0839
GTCCTAAA | -0.0236
AAGGCAAG | -0.321
CAGTTCTC | 0.00617
ATATACTG | 0.391
ACCGTCAA | -0.131
ATCCGTCG | 0.0223
TCGGTCCA | -0.102
CAAACTCA | -0.00762
CGGACAAA | -0.0713
CCCATCCG | -0.159
TGCGGACA | -0.0891
CCGATAAC | 0.117
GCGTGGAA | -0.175
CGAATGTC | -0.0683
AAGCTGAA | -0.00415
CGATGTAC | 0.172
CTAATAGA | 0.0426
ATGTAGTA | 0.403
GAGCGCTC | -0.0989
AGTAACCA | 0.231
CTACGCAA | -0.0862
AGTCTGTC | -0.191

Sequence | binding signal [E-score]
TAGGTTAA | -0.0308
CAAGAGTA | 0.064
CCTTTGCC | -0.279
CTCTAAGA | -0.218
AGGGCCAA | -0.217
ACCAGGTC | -0.146
GAACATTC | 0.142
GTTTAGGA | -0.106
AACTGGAT | 0.0867
GGCCGTCA | -0.121
ACGTAGGA | -0.0621
AAGAAATG | -0.0824
AGCGCTTA | -0.136
CGTGTGTA | -0.151
AACCCTTG | -0.285
GAGTGATA | 0.244
CACTCCGG | -0.138
AGCAGTTG | 0.0352
GGATCACA | -0.0818
CCGGGGCA | -0.325
CTACTTTC | 0.287
CCCTCCGC | -0.385
AAAGAGTA | 0.0389
ACCTTAGT | -0.00126
GTGAAGGA | -0.312

Sequence | binding signal [E-score]
CGATGAAC | -0.25
CAAAGAAC | 0.124
CTTACTAA | 0.222
ACCAACCT | 0.177
TACCCAGA | 0.0326
AGACAGAT | 0.046
AAACTAGA | 0.355
AGTTCGTG | 0.008
TCGACTAA | 0.00662
CCAATTAC | -0.00853
GAATCACA | 0.141
AAAGTGGT | 0.122
AGAGGCGC | -0.324
ACTCGCCT | -0.139
AACCCACT | 0.0541
CGGACGAG | -0.248
GACAAAGC | -0.181
TCTTGAAA | -0.187
CGAGCGAG | -0.138
GATGGAGA | -0.0862
TAAACCAA | 0.0841
ACTCAGGA | 0.0154
